{"source": "PubChem BioAssay AID485294", "about": "(National Center for Advancing Translational Sciences (NCATS), 2010)", "note": "About 150 (0.041%) of roughly 370,000 compounds were called active. The shares of active, inactive and inconclusive entries below differ from those in the screen. The call rests on the fitted dose curve; in most records, active means well fitted inhibition curve with a large enough effect; inconclusive means small, poorly fitted or top-dose-only effect; inactive means flat fitted curve, though single readings scatter. No potency is given beside an inconclusive call; the fits are too rough. Potency means the concentration at half of the fitted maximal effect; tags describe the fitted curve by direction and shape.", "data": [{"molecular_target": "Beta-lactamase (Escherichia coli (strain K12)) (UniProt P00811)", "sequence (P00811 whole entry, looked up)": "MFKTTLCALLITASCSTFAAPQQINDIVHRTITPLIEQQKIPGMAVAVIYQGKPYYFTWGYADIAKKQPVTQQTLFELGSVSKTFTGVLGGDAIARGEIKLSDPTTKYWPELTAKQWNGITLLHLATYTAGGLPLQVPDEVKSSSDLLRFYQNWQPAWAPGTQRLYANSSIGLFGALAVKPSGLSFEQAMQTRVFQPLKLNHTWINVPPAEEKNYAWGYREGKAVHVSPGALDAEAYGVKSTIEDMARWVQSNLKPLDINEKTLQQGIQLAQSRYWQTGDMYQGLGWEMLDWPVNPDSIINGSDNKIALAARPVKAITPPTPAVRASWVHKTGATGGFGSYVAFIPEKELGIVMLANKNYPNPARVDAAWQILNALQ", "assay": "qHTS Inhibitors of AmpC Beta-Lactamase (assay with detergent); further: nearly all actives have a fitted effect of over 25% in size;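 on activity change, negative = inhibition: 0% = no-compound wells and -100% = no-enzyme wells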", "settings": "AmpC hydrolysis of nitrocefin, absorbance 480 nm, 0.01% Triton; activity change, negative = inhibition: at 114 µM (top of the series)", "procedure,_shortened": "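AmpC (5.3 nM in the dispensed reagent) in 20 mM phosphate pH 7.0 with 0.01% (detergent screen) or 0.0001% Triton X-100 was preincubated with compounds for 15 min at room temperature. Nitrocefin was then added from an 800 uM solution, and hydrolysis was followed at 480 nm.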", "values": [{"smiles": "C=CCn1cnc2c(c1=O)c1nc3ccccc3nc1n2/N=C/c1cccc(OC)c1OC", "Potency": "inconclusive [inhibitor, partial curve]"}, {"smiles": "Cc1ccc(NC(=O)c2ccc(NS(=O)(=O)c3ccc4[nH]c(=O)[nH]c4c3)cc2)nc1", "Potency": "inconclusive [inhibitor, partial curve]"}, {"smiles": "CC(c1ccccc1)n1cc(C(=O)NCc2ccncc2)nn1", "note": "(stereo unspecified)", "Potency": "inconclusive [inhibitor, full curve, poor fit]"}, {"smiles": "O=S(=O)(Cc1ccccc1)NCc1ccccn1", "Potency": "inconclusive [inhibitor, full curve, poor fit]"}, {"smiles": "CCCCSCCCNC(=O)c1cn(CC)c2ccc(S(=O)(=O)N3CCCCCC3)cc2c1=O", "activity change, negative = inhibition": "inactive: 6.24%"}, {"smiles": "O=C1C(Cl)=C(Nc2cccc(O)c2)C(=O)N1Cc1ccccc1", "Potency": "inconclusive [inhibitor, full curve, poor fit]"}, {"smiles": "Cc1cc(C)cc(NC(=O)C(OC(=O)c2ccc(NC(=O)CC#N)cc2)c2ccccc2)c1", "note": "(stereo unspecified)", "activity change, negative = inhibition": "inactive: -9.79%"}, {"smiles": "CCc1ccccc1NC(=O)NC1CCCCC1", "activity change, negative = inhibition": "inactive: 5.04%"}, {"smiles": "CS(=O)(=O)Nc1ccccc1C(=O)Nc1ccccc1Cl", "Potency": "inconclusive [inhibitor, full curve, poor fit]"}, {"smiles": "CC(=C/c1ccc(C(C)C)cc1)/C=N/NC(=O)c1ccncc1", "activity change, negative = inhibition": "inactive: -10.8%"}, {"smiles": "COc1ccccc1NS(=O)(=O)c1cc(N2Cc3ccccc3C2=N)ccc1N1CCOCC1", "Potency": "inconclusive [inhibitor, partial curve, poor fit]"}, {"smiles": "O=c1[nH]c(SCc2c(Cl)cccc2Cl)nc2ccccc12", "Potency": "inconclusive [inhibitor, full curve, poor fit]"}, {"smiles": "O=C(C(=O)N1CCN(c2ccccc2F)CC1)c1c[nH]c2ccccc12", "Potency": "inconclusive [inhibitor, full curve, poor fit]"}, {"smiles": "COc1cccc(N2C(=O)Nc3ccccc3C2(O)C(=O)NCc2ccc3c(c2)OCO3)c1", "note": "(stereo unspecified)", "Potency": "inconclusive [inhibitor, full curve, poor fit]"}, {"smiles": "O=C(CN1CCN(S(=O)(=O)c2ccc(C(F)(F)F)cc2)CC1)N1CCNC1=O", "Potency": "inconclusive [inhibitor, full curve, poor fit]"}, {"smiles": "COc1cccc(NC(=O)Nc2cc(C)on2)c1", "Potency": "inconclusive [inhibitor, full curve]"}, {"smiles": "COc1ccc(N2CCN(C(=O)CSc3nnc4c5cc(C)ccc5n(C)c4n3)CC2)cc1", "Potency": "inconclusive [inhibitor, full curve, poor fit]"}, {"smiles": "c1ccc2c(c1)OCCOCCOc1ccccc1OCCOCCO2", "Potency": "inconclusive [inhibitor, full curve]"}, {"smiles": "COc1ccc(C(=O)NCC(=O)OCC(=O)c2ccc3c(c2)OCCO3)cc1", "Potency": "inconclusive [inhibitor, full curve, poor fit]"}, {"smiles": "COC(=O)c1ccccc1NC(=S)NC(C)=O", "activity change, negative = inhibition": "inactive: -5.16%"}, {"smiles": "COc1ccccc1C(=O)NCC(=O)N1CCN(S(=O)(=O)c2ccc3c(c2)OCCO3)CC1", "Potency": "inconclusive [inhibitor, partial curve, poor fit]"}, {"smiles": "COc1cc(CC(=O)Nc2ccc(S(=O)(=O)Nc3ncccn3)cc2)cc(OC)c1OC", "Potency": "inconclusive [inhibitor, full curve, poor fit]"}, {"smiles": "COc1cccc(CN(C)C(=O)CSCC(=O)Nc2cccc(C)c2)c1OC", "Potency": "inconclusive [inhibitor, partial curve, poor fit]"}, {"smiles": "COc1cccc(NC(=O)Nc2ccccc2C(N)=O)c1", "Potency": "inconclusive [inhibitor, partial curve]"}, {"smiles": "Cc1cccc(/C(N)=N/OC(=O)c2ccc(Cl)cc2Cl)c1", "activity change, negative = inhibition": "inactive: -1.96%"}, {"smiles": "Cc1cccc(NC(=O)C2CCN(S(C)(=O)=O)CC2)c1C", "Potency": "inconclusive [inhibitor, full curve]"}, {"smiles": "O=C(NCCO)c1cc([N+](=O)[O-])cc2c1C=Cc1ccccc1O2", "Potency": "inconclusive [inhibitor, full curve, poor fit]"}, {"smiles": "CCCc1[nH]nc2c1C(Cc1ccccc1)C(C#N)=C(N)O2", "note": "(stereo unspecified)", "Potency": "inconclusive [inhibitor, full curve, poor fit]"}, {"smiles": "COC(=O)c1cccc(NC(=O)CN2CCc3ccccc3C2)c1", "Potency": "inconclusive [inhibitor, full curve, poor fit]"}, {"smiles": "Cc1ccc(S(=O)(=O)N2CCCC2CNC(=O)C(=O)Nc2ccccc2)cc1", "note": "(stereo unspecified)", "Potency": "inconclusive [inhibitor, full curve, poor fit]"}, {"smiles": "O=C(COc1cc(O)c2c(=O)cc(-c3ccccc3)oc2c1)c1ccccc1", "activity change, negative = inhibition": "inactive: -3.43%"}, {"smiles": "CCc1cccc(C)c1NC(=O)c1cc(S(=O)(=O)N2CCOCC2)cn1C", "activity change, negative = inhibition": "inactive: 23.8%"}, {"smiles": "CNCC[C@@H](Oc1ccc(C(F)(F)F)cc1)c1ccccc1", "Potency": "inconclusive [inhibitor, full curve]"}, {"smiles": "CCCCn1c(N)c(N(CCOC)C(=O)c2cc(C)oc2C)c(=O)[nH]c1=O", "Potency": "inconclusive [inhibitor, full curve, poor fit]"}, {"smiles": "Cc1cc(C)cc(OCC(=O)NNC(=O)CN2C(=O)c3ccccc3C2=O)c1", "Potency": "inconclusive [inhibitor, full curve, poor fit]"}, {"smiles": "CCC(C)c1ccc(O)c(NC(=O)c2cccnc2)c1", "note": "(stereo unspecified)", "Potency": "inconclusive [inhibitor, full curve]"}, {"smiles": "COc1ccc(C2CC(c3cccs3)=NN2C(=O)CCC(=O)O)cc1", "note": "(stereo unspecified)", "Potency": "inconclusive [inhibitor, full curve]"}, {"smiles": "Cc1nn(C)c(C)c1NS(=O)(=O)c1ccccc1Cl", "Potency": "inconclusive [inhibitor, partial curve, poor fit]"}, {"smiles": "CCCCC(=O)Nc1nc(C)c(C(C)=O)s1", "Potency": "inconclusive [inhibitor, partial curve, poor fit]"}, {"smiles": "COCCNC(=O)c1cc2sc3ccccc3c2s1", "Potency": "inconclusive [inhibitor, full curve, poor fit]"}, {"smiles": "COc1cc(C(=O)N(CCN(C)C)CC2CCCN(Cc3ccccc3F)C2)ccc1C", "note": "(stereo unspecified)", "Potency": "inconclusive [inhibitor, full curve, poor fit]"}, {"smiles": "Brc1cccc(Nc2nc(-c3cccnc3)cs2)c1", "activity change, negative = inhibition": "inactive: -6.77%"}, {"smiles": "Cc1cc(Cl)ccc1OCC(=O)N1CCCCC1", "activity change, negative = inhibition": "inactive: -11.8%"}, {"smiles": "COc1ccc(-c2c(C)nn3c(N4CCN(c5ccccc5)CC4)cc(C)nc23)cc1OC", "Potency": "inconclusive [inhibitor, single point]"}, {"smiles": "Cc1c(C(=O)NC(c2ccccn2)C(F)(F)F)oc2c(F)cccc12", "note": "(stereo unspecified)", "activity change, negative = inhibition": "inactive: -4.77%"}, {"smiles": "O=C(OC(C(=O)NC1CCCC1)c1ccc(F)cc1)c1ccno1", "note": "(stereo unspecified)", "Potency": "inconclusive [inhibitor, partial curve, poor fit]"}, {"smiles": "CC1CC(C)CN(S(=O)(=O)c2ccc(C(=O)Nc3sccc3C(N)=O)cc2)C1", "note": "(stereo unspecified)", "Potency": "inconclusive [inhibitor, full curve, poor fit]"}, {"smiles": "O=C(COc1ccc2c3c(c(=O)oc2c1)CCC3)NCC1CCC(C(=O)O)CC1", "note": "(stereo unspecified)", "Potency": "inconclusive [inhibitor, full curve]"}, {"smiles": "O=C(Cn1c(=O)n2ncnc2c2c3c(sc21)CCCC3)c1ccccc1", "activity change, negative = inhibition": "inactive: -2.38%"}, {"smiles": "CCOC(=O)c1ccc(NC(=O)CN2c3ccccc3S(=O)(=O)c3ccccc32)cc1", "activity change, negative = inhibition": "inactive: 17.8%"}, {"smiles": "C[C@H](CO)NC(=O)[C@H](C)[C@@H]1C[C@@]1(C)[C@@H](NC(=O)OCc1ccccc1)c1ccccc1", "Potency": "inconclusive [inhibitor, full curve]"}, {"smiles": "CCn1c(SCC(=O)Nc2ccccc2N2CCOCC2)nnc1-c1ccccc1", "Potency": "inconclusive [inhibitor, full curve]"}, {"smiles": "Cc1ccc2[nH]c3c(c2c1)CN(C(=O)CN1CCCc2ccccc21)CC3", "Potency": "inconclusive [inhibitor, partial curve, poor fit]"}, {"smiles": "CC(C)C(=O)Nc1nc(-c2ccccc2)ns1", "Potency": "inconclusive [inhibitor, single point]"}, {"smiles": "Cc1ccccc1OCc1nc(-c2ccc(-n3cccc3)cc2)no1", "Potency": "inconclusive [inhibitor, full curve, poor fit]"}, {"smiles": "COc1cc(C(=O)Nc2ccccc2C2COC(=O)C2=N)cc(OC)c1OC", "note": "(stereo unspecified)", "Potency": "inconclusive [inhibitor, partial curve, poor fit]"}, {"smiles": "Cc1[nH]n(-c2ccccc2)c(=O)c1N=Nc1ccccc1O", "activity change, negative = inhibition": "inactive: -0.118%"}, {"smiles": "C=CCN(c1ccc(C(=O)Nc2ccc3c(c2)OCO3)cc1)S(C)(=O)=O", "activity change, negative = inhibition": "inactive: -1.31%"}, {"smiles": "C=CCNC(=O)NC(=O)CN1C(=O)NC(c2ccccc2)(c2ccccc2)C1=O", "Potency": "inconclusive [inhibitor, full curve, poor fit]"}, {"smiles": "CC(C)CC(C(=O)NCC1CCCO1)N(C(=O)Cn1nnc(-c2ccc(F)cc2)n1)c1cccc(C(F)(F)F)c1", "note": "(stereo unspecified)", "activity change, negative = inhibition": "inactive: 1.61%"}, {"smiles": "S=C(NC1CCCC1)NC1CC1", "Potency": "inconclusive [inhibitor, partial curve, poor fit]"}, {"smiles": "CCC1(C)Cc2c(sc3c2c(=O)n(C)c2nnc(SCCc4ccccc4)n32)CO1", "note": "(stereo unspecified)", "Potency": "inconclusive [inhibitor, full curve]"}, {"smiles": "COC(=O)c1ccccc1NC(=O)CNc1cc(Cl)ccc1N1CCOCC1", "Potency": "inconclusive [inhibitor, full curve, poor fit]"}, {"smiles": "O=[N+]([O-])c1ccccc1/C=N/OCc1ccccc1", "activity change, negative = inhibition": "inactive: -6.12%"}, {"smiles": "O=C(COC(=O)c1cc2ccccc2oc1=O)Nc1cccc(S(=O)(=O)N2CCCCCC2)c1", "activity change, negative = inhibition": "inactive: -7.81%"}, {"smiles": "CC(=O)c1cc2c(cc1NC(=O)CN1CCCCC1C)OCO2", "note": "(stereo unspecified)", "Potency": "inconclusive [inhibitor, full curve]"}]}]}
